Test results reported in article PMC7819943, “Rice protein-binding microarrays: a tool to detect cis-acting elements near promoter regions in rice”.
The list shows a part of the results.

biological target: T1, OsWOX13 (Oryza sativa, UniProt Q5QMM3 1-267); assay: protein-binding microarray (RPBM); PBS, 2% BSA, 51.3 ng/ul salmon testes DNA, 50 uM zinc acetate, 200 nM TF, 25 C, 1 h; high values mean tight binding; details: protein: recombinant; tags: N-terminal polyhistidine and DsRed monomer fusion (pET32a); label: CyDye5-dUTP incorporated in the synthesized complementary strand; 3' TTTTT single-stranded linker to array surface; dsDNA, one strand shown
T1 sequence: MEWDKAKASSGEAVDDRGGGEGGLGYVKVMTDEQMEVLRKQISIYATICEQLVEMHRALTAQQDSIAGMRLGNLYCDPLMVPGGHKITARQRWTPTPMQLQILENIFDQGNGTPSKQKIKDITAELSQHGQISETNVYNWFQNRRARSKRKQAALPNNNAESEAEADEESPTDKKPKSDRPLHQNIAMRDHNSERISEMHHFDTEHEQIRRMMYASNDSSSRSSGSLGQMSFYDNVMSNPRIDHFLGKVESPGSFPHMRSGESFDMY
Method in brief: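 For the binding signal, per-feature fluorescence intensity was read in arbitrary units on an Axon 4000B scanner. Before scanning, a 2% BSA-blocked custom Agilent array made double-stranded with Cy5-dUTP was washed after 1 h at 25 °C with 200 nM protein and 50 µM zinc acetate. The proteins were Ni–NTA-purified transcription factors with N-terminal polyhistidine and DsRed fusions, expressed in E. coli BL21-CodonPlus.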

Compared with “ATCTAATTTTACAAAATTTCAGTGGCACCCAGCCAATATCCGGAGTCACCTAGTGCAG”, “ATAAATCTTGTAATTAAAGAATTTTCAGGTGTTTCAGTGACGGAGTCACCTAGTGCAG” is lower in binding signal: 6420 fluorescence intensity (a.u.) for the first, 6280 fluorescence intensity (a.u.) for the second.

Compared with “ACACTAACTGCCGAGATGTCGATCCCAATTCCACGTGTGGCGGAGTCACCTAGTGCAG”, “CATGACAGATAGCACGACAGGACTACAGGAGTGCTGCAGCCGGAGTCACCTAGTGCAG” is higher in binding signal: 7240 fluorescence intensity (a.u.) for the first, 10400 fluorescence intensity (a.u.) for the second.

Going from “ACAATAATTTTCCATTACAAAGGATTGAAGAGAAACAGGACGGAGTCACCTAGTGCAG” to “AGTAACTGGTTGATAGTCAACTTACGAGAATCTGCAAACGCGGAGTCACCTAGTGCAG”, the binding signal falls from 17200 fluorescence intensity (a.u.) to 7820 fluorescence intensity (a.u.).

Compared with “TTTGTTAATTAGCGGAGCCTAAGTGGAAATAAAGGCAGTACGGAGTCACCTAGTGCAG”, “CTCAATTGCTCGTCACTCGTCCCTCCACCGACACTGCTGGCGGAGTCACCTAGTGCAG” is lower in binding signal: 18600 fluorescence intensity (a.u.) for the first, 3560 fluorescence intensity (a.u.) for the second.

Going from “CCGGTTGTAATTTGTAAACTCATAATGAGATGAAAATGACCGGAGTCACCTAGTGCAG” to “AATTAATCAGCAAGGAATGAATTAACAAACTTTTGCCATTCGGAGTCACCTAGTGCAG”, the binding signal falls from 7770 fluorescence intensity (a.u.) to 3710 fluorescence intensity (a.u.).

Going from “CAAATTGTATACTGATATAGATATGCATCCCTCCCTGCATCGGAGTCACCTAGTGCAG” to “GCATGCAATTAACTATGACATCTAATCCTATTGGATGCATCGGAGTCACCTAGTGCAG”, the binding signal rises from 6770 fluorescence intensity (a.u.) to 14700 fluorescence intensity (a.u.).

Going from “AAATTAATTAATTCAACAAGAAACTAAAGCAACTTTTAAACGGAGTCACCTAGTGCAG” to “GCACTAATTAACGGCTTGTAAAACGTGCTCGTAATAATTACGGAGTCACCTAGTGCAG”, the binding signal rises from 6050 fluorescence intensity (a.u.) to 18700 fluorescence intensity (a.u.).

Compared with “GCTAACGAAATCGAAATGATTGGAATACTTATAAACCCTGCGGAGTCACCTAGTGCAG”, “ACGAGGTTAATTACAATTAAAATTTTATGCTAGAATAATTCGGAGTCACCTAGTGCAG” is lower in binding signal: 27400 fluorescence intensity (a.u.) for the first, 15900 fluorescence intensity (a.u.) for the second.

Going from “GATAATAGAATTTCAGTTCAGACTAACAAATTAGGTACACCGGAGTCACCTAGTGCAG” to “TTCTCATTTTATTTAATTTAAAAGTAATTTATTACATGTTCGGAGTCACCTAGTGCAG”, the binding signal falls from 12700 fluorescence intensity (a.u.) to 11600 fluorescence intensity (a.u.).

Going from “TCTGCCAATTTGACAATTGTACTTTTATTGTGTCACTGGTCGGAGTCACCTAGTGCAG” to “ACATCAATTGTAATCAAGGCATCGGAAAAGCAGGGTCCGGCGGAGTCACCTAGTGCAG”, the binding signal rises from 5530 fluorescence intensity (a.u.) to 6680 fluorescence intensity (a.u.).

Going from “CACGCAAAACAAAGTTCATTTTATTGCATGATCAATTAAGCGGAGTCACCTAGTGCAG” to “CGAGCTAATTATCGCCATCGCCCGCCGCGATCTATATAAACGGAGTCACCTAGTGCAG”, the binding signal rises from 3990 fluorescence intensity (a.u.) to 6060 fluorescence intensity (a.u.).

First: TGTAATTGAATAGAATACAATTAGGCTAATCTTGCGATAACGGAGTCACCTAGTGCAG
Second: CAATTACAAATAATTAATCTTAACTACTACTCCACAGTGTCGGAGTCACCTAGTGCAG
The binding signal of the first is higher: 28000 fluorescence intensity (a.u.) for the first, 9810 fluorescence intensity (a.u.) for the second.

Compared with “ATACTTAAAATTAAATTAATATAATTTGTTTTCAGATTTTCGGAGTCACCTAGTGCAG”, “TCACATAAGATTGGGCCTAAATTGCACAAAGTGTCGTCTCCGGAGTCACCTAGTGCAG” is lower in binding signal: 10500 fluorescence intensity (a.u.) for the first, 8200 fluorescence intensity (a.u.) for the second.

First: AACTCATGATTAATTAAGTATTAACTATTTTAAATTTTAACGGAGTCACCTAGTGCAG
Second: ACCATGTGAATTTAACTGTCAAAACTCCTAACTGCAACATCGGAGTCACCTAGTGCAG
The binding signal of the first is higher: 8380 fluorescence intensity (a.u.) for the first, 4060 fluorescence intensity (a.u.) for the second.

First: TGTTCAGATTGATGCCATTTCAAACCATACCGGTTTTAGACGGAGTCACCTAGTGCAG
Second: AATAATTTCATATTACTGACACTTCTAAAACCCCAACCACCGGAGTCACCTAGTGCAG
The binding signal of the first is higher: 18600 fluorescence intensity (a.u.) for the first, 12100 fluorescence intensity (a.u.) for the second.

Compared with “AATCTAAACTCAATCAAGAACCGAATTTTAAAACCCCTTTCGGAGTCACCTAGTGCAG”, “CGTTTGCGATTGATTTCAACCCAAGCAACAATAATCTCGTCGGAGTCACCTAGTGCAG” is higher in binding signal: 8240 fluorescence intensity (a.u.) for the first, 9240 fluorescence intensity (a.u.) for the second.

Compared with “AACAAATTGGCAATTTTGGGTGCATAATATGCACACAAAACGGAGTCACCTAGTGCAG”, “TAATATTTAATTGGTTAAACGGTAATGAGTAACCAAATTTCGGAGTCACCTAGTGCAG” is higher in binding signal: 15100 fluorescence intensity (a.u.) for the first, 15700 fluorescence intensity (a.u.) for the second.

First: ATCTAGACACTTTCAGATTGAAAATTGTGTATATTTGTACCGGAGTCACCTAGTGCAG
Second: AGTAATAAATAAAACTTAATTAATTATTTTAATGGTTTTCCGGAGTCACCTAGTGCAG
The binding signal of the first is lower: 4990 fluorescence intensity (a.u.) for the first, 15200 fluorescence intensity (a.u.) for the second.

Compared with “AGGTTAATCAGCAGTCTACCTCACCTTCTATTTACAATTTCGGAGTCACCTAGTGCAG”, “CACTAGTATTCAATCACCCAGTTCCAAGAATGCGTTACAGCGGAGTCACCTAGTGCAG” is higher in binding signal: 4160 fluorescence intensity (a.u.) for the first, 9460 fluorescence intensity (a.u.) for the second.

First: CTCTGTAACTATATAATTTCGTGCCAGATCGAAACTATGTCGGAGTCACCTAGTGCAG
Second: GATGAAATTGGTTTATAGCCTCTCGCTTAATGTTTTCTTTCGGAGTCACCTAGTGCAG
The binding signal of the first is higher: 4040 fluorescence intensity (a.u.) for the first, 3240 fluorescence intensity (a.u.) for the second.

First: TGTTAATTACATTGGCTAATCAAAATTACAGGGAGAGATTCGGAGTCACCTAGTGCAG
Second: AATTCAAATTTTATATAGTTCAATCAAACTCGGATGGAGACGGAGTCACCTAGTGCAG
The binding signal of the first is higher: 29600 fluorescence intensity (a.u.) for the first, 3880 fluorescence intensity (a.u.) for the second.
